This note sets out measurements from patent US20260200997A1, “AFFINITY AGENTS” (Repligen Corporation, priority 2022, published 2026).

The assay has as its target T1, Haptoglobin protein (Homo sapiens, UniProt P00738).
T1 sequence (P00738 162-406 limits assumed): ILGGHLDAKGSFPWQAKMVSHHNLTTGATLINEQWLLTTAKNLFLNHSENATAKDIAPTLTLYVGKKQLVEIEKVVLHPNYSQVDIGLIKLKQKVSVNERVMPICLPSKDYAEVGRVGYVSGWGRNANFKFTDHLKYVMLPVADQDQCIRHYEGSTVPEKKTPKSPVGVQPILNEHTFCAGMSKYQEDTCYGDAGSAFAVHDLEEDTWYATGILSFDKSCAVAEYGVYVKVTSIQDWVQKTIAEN
T1 sequence (P00738 19-160 limits assumed): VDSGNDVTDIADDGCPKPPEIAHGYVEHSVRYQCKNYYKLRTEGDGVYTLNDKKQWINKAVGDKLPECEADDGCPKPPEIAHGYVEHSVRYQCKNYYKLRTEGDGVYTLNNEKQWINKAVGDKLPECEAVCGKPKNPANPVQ
The assay is described as follows: Dynamic binding capacity of packed affinity resin column. As to conditions: resin from ligand, 0.3×10 cm column, 1 mg/mL haptoglobin in PBS, 10% breakthrough, FIG. 4. As to the method: Haptoglobin protein was diluted to a concentration of 1 mg/mL in PBS. A resin prepared from the ligand corresponding to SEQ ID NO. 118 was packed into a column. A 0.3×10 cm (0.707 mL) column was operated according to the following table.
To evaluate the effect of residence time on dynamic binding capacity the linear velocity of the load solution was varied. Distinct dynamic binding capacity measurements were made using a linear velocity of 75 cm/hr (8-minute residence time), 100 cm/hr (6-minute residence time), 150 cm/hr (4-minute residence time), and 300 cm/hr (2-minute residence time).
The materials were analyzed by measuring absorbance of each effluent fraction compared to the absorbance of the load solution. The aggregate mass of haptoglobin challenge at the point when the effluent measures 10% of the load solution is reported as the dynamic binding capacity of the resin. The data is shown in FIG. 4 for an exemplary affinity resin produced from the affinity ligand corresponding to SEQ ID NO.

B1: MVDAKFDKELEEARAEIERLPNLTEEQRRNFIQALRDDPSSSAGLLALAKHWNDKQAPKVDAKFDKELEEARAEIERLPNLTEEQRRNFIQALRDDPSSSAGLLALAKHWNDKQAPKVDAKFDKELEEARAEIERLPNLTEEQRRNFIQALRDDPSSSAGLLALAKHWNDKQAPKAAAHHHHHHC (protein)
chain: MVDAKFDKELEEARAEIERLPNLTEEQRRNFIQALRDDPSSSAGLLALAKHWNDKQAPKVDAKFDKELEEARAEIERLPNLTEEQRRNFIQALRDDPSSSAGLLALAKHWNDKQAPKVDAKFDKELEEARAEIERLPNLTEEQRRNFIQALRDDPSSSAGLLALAKHWNDKQAPKAAAHHHHHHC
For B1, the “Dynamic binding capacity of the resin on increasing the residence time to 8 minutes” value (8-minute residence time (75 cm/hr)) was “did not increase binding capacity”. In addition, where the note is “residence time 2-6 minutes”, the “Dynamic binding capacity of the resin versus residence time” value is “increases with increased residence time over the range of 2-6 minutes”.
